Measured values as given in US20240342284A1 (ARSENAL BIOSCIENCES, published 2024).
Values belong to the binder of their own block, whether it stands above or below them.

Legend:
[1] = target: T1, human PSMA with Y75H SNP, expressed on HEK293T cells (human, UniProt Q04609); experiment: flow cytometry histograms on the Y75H PSMA HEK293T line, secondary mouse anti human IgG2 stain
T1 construct: also called PSMA-Y75H; PSMA isoform SNP Y75H
Text: HEK293T cell lines were generated to express PSMA with a Y75H single nucleotide polymorphism (SNP). PSMA 1 and PSMA 2 scFvs were used to stain the PSMA-Y75H cell line followed by a secondary mouse anti human IgG2 stain. […] Thus, both PSMA 1 and PSMA 2 could bind to various isoforms of PSMA.

[2] = target: T2, human Prostate-Specific Membrane Antigen (PSMA) expressed on cells (human, UniProt Q04609); experiment: flow cytometry histograms on the wt line 293T-LP81-PSMA (CL571), secondary mouse anti human IgG2 stain
T2 construct: also called FOLH1; HEK293T-PSMA

binding result [1]: binds
binding result [2]: binds
B1: PSMA 2 scFv (scFv)
scFv: EIVLTQSPATLSLSPGERATLS[gap - about 80 residues]TFGQGTKLEIKGGGGSGGGGSGGGGSQVQLVQSGAEVKKPGASVKVSCKASGYTFSSYGVSWVRQAPGQGLEWMGWISKYNGNTNYAQKFQGRVTMTTDTSTSTAYMELRSLRSDDTAVYFCARGGIHGDSYYFYYLDVWGKGTTVTVSS
notes: It was detected with a secondary 'mouse anti human IgG2' stain

binding result [1]: binds
binding result [2]: binds
B2: PSMA 1 scFv (scFv)
scFv: [gap - about 100 residues]GGGGSGGGGSGGGGSQVQLVQSGPEVKKPGASVKVSCKASGYTFTSYGITWVRQAPGQGLEWMGWISEYNGNTNYAQKFQGRVTMTIDTSTTTAYMELRSLRSDDTAVYFCARGGILPYYFFYYMDVWGKGTTVTVSS
notes: as for B1
